In PubChem BioAssay AID488969 (Vanderbilt High Throughput Screening Facility, 2010):
Over roughly 110,000 compounds, “z-score” has its median near -0.1; the highest 2% begin near 2. This is one part of the list.

The molecules below were run against Metabotropic glutamate receptor 8 (Rattus norvegicus) (UniProt P70579) (assay: mGluR8 Gi/Go-coupled signaling modulation – cell-based, rat, thallium flux, HTS, primary screen (AID 488969)). Settings: HEK293 rat mGluR8, GIRK (G protein-gated inwardly rectifying potassium channel) thallium flux, FluoZin2; at 10 µM; stronger effect = higher value; submaximal glutamate (EC20) added with thallium.
Sequence of UniProt P70579 (P70579 whole entry, looked up): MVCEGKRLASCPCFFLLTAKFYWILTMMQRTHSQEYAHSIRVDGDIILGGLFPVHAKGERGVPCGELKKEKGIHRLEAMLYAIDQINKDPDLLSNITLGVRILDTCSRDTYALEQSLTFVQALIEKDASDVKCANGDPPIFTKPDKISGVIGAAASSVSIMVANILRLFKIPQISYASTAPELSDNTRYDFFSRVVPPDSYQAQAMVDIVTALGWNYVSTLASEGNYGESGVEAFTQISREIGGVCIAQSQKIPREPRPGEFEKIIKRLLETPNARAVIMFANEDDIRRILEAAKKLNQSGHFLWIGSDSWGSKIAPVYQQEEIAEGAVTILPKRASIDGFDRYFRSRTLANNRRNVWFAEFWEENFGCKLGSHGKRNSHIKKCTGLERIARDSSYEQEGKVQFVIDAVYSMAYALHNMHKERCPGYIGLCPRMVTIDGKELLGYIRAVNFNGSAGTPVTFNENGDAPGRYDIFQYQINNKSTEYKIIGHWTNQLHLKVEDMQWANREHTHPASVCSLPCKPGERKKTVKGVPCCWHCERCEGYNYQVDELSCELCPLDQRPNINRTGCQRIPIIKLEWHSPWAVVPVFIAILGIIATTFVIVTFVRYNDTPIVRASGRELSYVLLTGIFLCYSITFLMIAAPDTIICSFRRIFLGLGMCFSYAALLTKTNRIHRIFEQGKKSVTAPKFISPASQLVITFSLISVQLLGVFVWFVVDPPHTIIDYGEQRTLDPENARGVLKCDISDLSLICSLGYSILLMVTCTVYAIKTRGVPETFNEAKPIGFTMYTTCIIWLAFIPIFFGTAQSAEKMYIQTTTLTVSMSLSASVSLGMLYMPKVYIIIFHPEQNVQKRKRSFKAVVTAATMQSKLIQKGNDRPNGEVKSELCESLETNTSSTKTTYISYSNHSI

SMILES	z-score
CCCCCn1cnc2sc(CC)cc2c1=O	-0.4
COc1ccc(Oc2coc3cc(OCC(=O)N4CCCCC4)ccc3c2=O)cc1	-0.212
CC1=CC(C)(C)Nc2ccc(OC(=O)CN3C(=O)c4cccc5cccc(c45)C3=O)cc21	-0.208
Cc1oc(-c2ccccc2F)nc1CS(=O)(=O)CC(=O)NCCCN1CCc2ccccc2C1	0.0639
O=C(c1ccc(F)cc1)N1CCN(c2ccc([N+](=O)[O-])c(N3CCCCC3)c2)CC1	-1.01
COc1ccc(C2=NN(CN3C(=O)C(=O)c4ccccc43)C(c3ccc(Br)cc3)C2)cc1 (configuration not stated)	-0.114
CSc1cccc(-n2cc(-c3ccc4c(c3)OCO4)[nH]c2=O)c1	0.264
CCc1ccc(CCC(=O)Nc2nnc(C)s2)o1	-0.0371
CCOC(=S)SCC(=O)N1CCc2ccccc2C1C1C(=O)CCCC1=O (configuration not stated)	-0.248
Cc1c(Cc2ccccc2)sc(NC(=O)Cc2ccccc2)c1C(N)=O	0.107
CCCc1ccc(Oc2cc(C)nc(N3CCOCC3)n2)cc1	-0.0499
Cc1ccc(C)c(S(=O)(=O)N2C(=S)NC(=O)C2CC(C)C)c1 (configuration not stated)	-0.119
O=c1cc(Cl)c(-c2ccccc2)n[nH]1	-0.334
CC(C)NC(=O)Cn1nnc(-c2ccc(Cl)cc2)n1	0.327
Cc1cc(O)c(NC(=S)NC(=O)c2ccc(-c3ccc(Cl)cc3)o2)cc1C	0.116
Cn1ncc2c(NNC(=O)c3ccc(Cl)cc3Cl)ncnc21	0.184

SMILES	z-score
O=C(Nc1nnc(SCc2ccc(F)cc2)s1)C1Cc2ccccc2CN1C(=O)c1ccco1 (configuration not stated)	-0.161
CCCc1nnc(NC(=O)c2cccs2)s1	-0.163
Cc1ccc(Nc2cc(=O)n(C3CCCCC3)c(=O)[nH]2)cc1C	0.499
COc1cccc(-c2nc3n(n2)C(c2ccc4c(c2)OCO4)C(C(N)=O)=C(C)N3)c1 (configuration not stated)	-1.06
Nc1nonc1-c1noc(N2CCOCC2)n1	0.00406
COC(=O)Cn1cc(C#N)c2ccccc21	0.0457
CCOc1ccc(C(=O)N2CCCC2)cc1OC	-0.394
O=C(NC1CCCCC1)c1ccc(CNc2c(N3CCOCC3)c(=O)c2=O)cc1	-0.201
CC(C)CCNC(=O)CO/N=C/c1ccccc1OC(F)F	-0.572
C=CCN=C(NC#N)SCC(=O)NCc1ccccc1	0.0139
C#CCSc1nsc(SCC#C)c1C#N	-0.292
CC(=O)Nc1cccc(-c2csc(Nc3cccc(C)n3)n2)c1	-0.0514
CN=c1sc2ccccc2n1CC(O)COc1ccccc1 (configuration not stated)	0.639
CC1CC(C)(C)CC2(C1)NC(=O)N(CC(=O)NCC(c1ccco1)N1CCCCC1)C2=O (configuration not stated)	0.771
O=C(Cc1cccc2ccccc12)NN1C(=O)C2C(C1=O)C1C=CC2C12CC2 (configuration not stated)	0.0603
CCn1nnnc1SCC(=O)NC1CCCC1	-0.0025
